This is one part of the list.
Experiments:
[1] = test system: HSkMC (human skeletal muscle cells); experiment: cytotoxicity call (relative viability < 0.9); conditions: 10 µM
[2] = test system: HepG2; experiment: cytotoxicity call (relative viability < 0.9); conditions: 10 µM
[3] = test system: S. aureus RN4220; experiment: growth inhibition call (relative growth <= 0.2); conditions: 50 µM

CO[C@H]1CN(C)C(=O)c2cc(NC(=O)CC(F)(F)F)ccc2OC[C@H](C)N(S(=O)(=O)c2cn(C)cn2)C[C@H]1C
inactive: cytotoxicity call [1] | cytotoxicity call [2] | growth inhibition call [3]

C[C@@H]1CN([C@H](C)CO)C(=O)Cc2cc(NS(C)(=O)=O)ccc2O[C@@H]1CN(C)S(=O)(=O)c1ccccc1
inactive: cytotoxicity call [1] | cytotoxicity call [2] | growth inhibition call [3]

C[C@@H]1CCCCO[C@H](CN(C)C(=O)Nc2ccc(C(F)(F)F)cc2)[C@@H](C)CN([C@H](C)CO)C(=O)c2cc(NC(=O)Nc3cccc4ccccc34)ccc2O1
inactive: cytotoxicity call [1] | cytotoxicity call [2] | growth inhibition call [3]

Cc1noc(C)c1NC(=O)Nc1ccc2c(c1)C(=O)N([C@H](C)CO)C[C@H](C)[C@H](CN(C)C(=O)Nc1ccc3c(c1)OCO3)OCCCC[C@@H](C)O2
inactive: cytotoxicity call [1] | cytotoxicity call [2] | growth inhibition call [3]

COc1ccc(S(=O)(=O)Nc2ccc3c(c2)C(=O)N([C@H](C)CO)C[C@@H](C)[C@@H](CN(C)S(=O)(=O)c2ccc(F)cc2)O3)cc1
inactive: cytotoxicity call [1] | cytotoxicity call [2] | growth inhibition call [3]

COc1ccc(NC(=O)N(C)C[C@@H]2OCCCC[C@@H](C)Oc3ccc(NC(=O)Nc4ccc(F)cc4)cc3C(=O)N([C@@H](C)CO)C[C@H]2C)cc1
inactive: cytotoxicity call [1] | cytotoxicity call [2] | growth inhibition call [3]

CC(C)NC(=O)Nc1ccc2c(c1)CC(=O)N([C@H](C)CO)C[C@@H](C)[C@H](CN(C)S(=O)(=O)c1ccc(F)cc1)O2
inactive: cytotoxicity call [1] | cytotoxicity call [2] | growth inhibition call [3]

COC(=O)[C@@H]1OC(=O)[C@H]2O[C@@]23[C@]2(C)[C@@H](O)C[C@H]4C(C)(C)[C@H](OC(C)=O)C[C@H](OC(C)=O)[C@]4(C)[C@@H]2CC[C@@]13C
inactive: cytotoxicity call [1] | cytotoxicity call [2] | growth inhibition call [3]

Source: the antibiotic and cytotoxicity screens of Wong et al. (2023)
